Source: the supplement of paper PMC3334620
The full ranking holds about 33,000 sequences; the median of “E-score (-0.5 to 0.5)” is about -0.043, and the highest 2% start at about 0.37. The list shows a part of the results.

The sequences below were run against T1, Upc2 (UniProt Q12151) (assay: PBM E-score (8-mer binding enrichment) (E-score (-0.5 to 0.5)); higher = stronger / more preferred TF binding; most listed sequences are background and not binding sites). Settings: protein concentration: 200 nM; construct: GST-full length.
T1 sequence: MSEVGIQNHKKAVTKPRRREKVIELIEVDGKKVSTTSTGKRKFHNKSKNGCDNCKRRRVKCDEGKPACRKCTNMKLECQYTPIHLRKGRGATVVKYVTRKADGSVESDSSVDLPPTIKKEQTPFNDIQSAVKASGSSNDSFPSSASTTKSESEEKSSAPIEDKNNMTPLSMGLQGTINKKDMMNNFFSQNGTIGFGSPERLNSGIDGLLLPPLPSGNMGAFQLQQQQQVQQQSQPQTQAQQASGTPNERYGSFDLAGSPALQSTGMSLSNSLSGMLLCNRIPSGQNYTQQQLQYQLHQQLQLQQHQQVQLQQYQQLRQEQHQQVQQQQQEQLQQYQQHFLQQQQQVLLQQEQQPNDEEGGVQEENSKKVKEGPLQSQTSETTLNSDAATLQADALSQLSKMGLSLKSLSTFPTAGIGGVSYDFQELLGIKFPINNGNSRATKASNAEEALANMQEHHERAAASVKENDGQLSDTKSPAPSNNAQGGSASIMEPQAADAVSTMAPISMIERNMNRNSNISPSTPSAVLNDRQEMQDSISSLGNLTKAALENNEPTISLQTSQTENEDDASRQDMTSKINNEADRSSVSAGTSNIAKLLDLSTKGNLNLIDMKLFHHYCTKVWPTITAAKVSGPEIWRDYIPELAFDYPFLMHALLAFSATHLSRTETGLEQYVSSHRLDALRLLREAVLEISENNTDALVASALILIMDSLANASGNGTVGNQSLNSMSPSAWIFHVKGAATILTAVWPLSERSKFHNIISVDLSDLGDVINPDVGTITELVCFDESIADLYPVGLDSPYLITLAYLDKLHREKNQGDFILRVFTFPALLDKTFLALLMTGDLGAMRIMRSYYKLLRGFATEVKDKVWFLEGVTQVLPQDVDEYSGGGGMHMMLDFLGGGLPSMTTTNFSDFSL
Procedure, shortened: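 Detection of bound protein used fluorescent anti-GST, with scans normalised by masliner. The proteins were GST-tagged yeast transcription factors applied at about 100-200 nM to universal all-10-mer Agilent arrays made double-stranded by primer extension. Each ungapped eight-base word, pooled with its reverse complement, was scored with an E-score from the Universal PBM Analysis Suite.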

| Sequence | PBM E-score |
| --- | --- |
| ATAGTCCC | -0.333 |
| ATCCGGAA | -0.0544 |
| AACGACAC | 0.428 |
| GTAGGAAC | 0.13 |
| GAATACCA | -0.116 |
| AAAGGGGC | -0.127 |
| AAGCCGGG | -0.0356 |
| TCCCTACA | -0.0746 |
| CGTTGTGA | 0.143 |
| CCTCTCAC | -0.274 |
| CACAGAAA | 0.0367 |
| CCCAAGTC | -0.187 |
| GACTATGA | -0.0954 |
| CGGCATAA | 0.114 |
| CTCAGGGC | -0.198 |
| CTGCCTCC | -0.147 |
| TTAACCAA | -0.033 |
| GAAACGCA | -0.059 |
| ACCTTGGC | -0.142 |
| CAAACATG | -0.124 |
| CTTGGTTC | 0.103 |
| ACGTCGTC | 0.206 |
| CACAATAC | 0.0113 |
| AGCCAAAA | -0.178 |
| AGTTCGTA | 0.439 |

| Sequence | PBM E-score |
| --- | --- |
| TGCGTCCA | -0.17 |
| CTTCCGCA | 0.0157 |
| ACATATCA | -0.0715 |
| CTGGAAAG | -0.308 |
| CGAGTGGC | 0.104 |
| CTATGGAA | -0.161 |
| ATGCATCC | -0.132 |
| GAATCCTA | -0.0559 |
| CCTGCACA | -0.257 |
| ATGCATAA | -0.194 |
| CCCGGTAC | 0.0958 |
| CTTGGTGC | -0.204 |
| CATTCATA | -0.0226 |
| ACCCTAAG | -0.108 |
| AAAGCCTA | -0.0945 |
| TCTCTTCA | -0.104 |
| ATGTGTTA | 0.132 |
| CTCCCCAG | -0.176 |
| TAGGTGAA | -0.00337 |
| CTAGGGCA | -0.371 |
| AGTCTCGC | 0.145 |
| AACGGCAA | 0.148 |
| GCGACCAA | 0.0389 |
| CGCGTAAA | 0.354 |
| CAACACTA | 0.00608 |

| Sequence | PBM E-score |
| --- | --- |
| AACACATT | 0.0513 |
| AGTTGTCG | 0.0355 |
| GAAATGGA | -0.243 |
| ACTATGCT | 0.0298 |
| AACTCGGG | 0.0291 |
| AGATGTCG | 0.119 |
| ACCCGCGA | -0.0601 |
| CATGGTCG | 0.0506 |
| GGCAACCC | -0.152 |
| AGGCGGCA | -0.182 |
| CCTAAGAC | -0.0917 |
| GAGCAGAA | 0.0585 |
| CGCGCCTA | 0.212 |
| TGAGTAAA | -0.0329 |
| ACTTGGAT | 0.0694 |
| GGATAGGA | 0.0219 |
| ACAAGGCG | -0.0278 |
| TCGCGCAA | 0.0965 |
| TTAAATAA | -0.00824 |
| CGTGGAGC | -0.0916 |
| CAGGAATG | -0.204 |
| ATCCGTAA | 0.284 |
| AAATTACC | 0.138 |
| AGAGTAGC | -0.15 |
| GAGAAAAC | 0.0251 |

| Sequence | PBM E-score |
| --- | --- |
| AAAAAAAT | 0.0605 |
| TGGTAACA | 0.0759 |
| GAAAACGA | 0.263 |
| CTCAGAGC | -0.295 |
| ATAACCGG | -0.0223 |
| AGACTATG | -0.0737 |
| ATGAGTTC | -0.176 |
| GTATTATA | 0.168 |
| AATATAGT | -0.0398 |
| ATATGAAA | 0.0399 |
| ATAATTGG | -0.0531 |
| TATCAGAA | 0.06 |
| TCCGACCA | 0.0761 |
| CTGCAGTC | -0.0683 |
| AGAGGCTC | -0.0436 |
| CATTAATG | -0.00024 |
| CCACAGTA | 0.0359 |
| ACGGGCAG | 0.0778 |
| ATTTGTTA | 0.0411 |
| GAGATTAA | -0.0122 |
| CGAGCGGA | 0.294 |
| CAGTAATA | 0.088 |
| CAATGCAC | -0.119 |
| GGGACTAC | -0.126 |
| AATATGCC | -0.171 |

| Sequence | PBM E-score |
| --- | --- |
| CTTGGTAC | 0.218 |
| CTTTTCAC | -0.0852 |
| CTGATTAA | 0.0129 |
| GACGCAGA | 0.122 |
| GAGTTAAA | 0.0132 |
| GGAAGGAC | -0.163 |
| CATAGATG | -0.237 |
| GGAGAGCA | -0.135 |
| GAGGGCGC | -0.0991 |
| ACCCACAC | 0.11 |
| GGGCGCTA | -0.158 |
| ATCCCAAG | -0.27 |
| CGTCCAAG | -0.236 |
| ATCTTATC | 0.0902 |
| TGTCTAAA | 0.14 |
| CCTGGGTC | -0.293 |
| AGTTGATG | -0.0293 |
| AAGTACAG | -0.174 |
| ATCTGAAG | -0.202 |
| AATCGTTC | 0.396 |
| AAATTGCT | 0.0818 |
| CGCAGCAA | -0.211 |
| AAAATCCA | 0.0293 |
| GACTACCC | -0.0524 |
| AATAGGCG | -0.106 |

| Sequence | PBM E-score |
| --- | --- |
| AACTCTGT | -0.12 |
| CGCCTACC | -0.0354 |
| AGACGTGC | 0.0541 |
| GCGTAAGA | 0.217 |
| AGCCTGTA | -0.143 |
| AACGGAGG | 0.224 |
| AGCATTGC | 0.0722 |
| GGGTACAA | -0.0246 |
| CGGCAAAG | -0.133 |
| ACGTTTCA | 0.116 |
| CGACCGGC | -0.0744 |
| ACCATCAC | -0.0129 |
| GCGAACTA | 0.0498 |
| AGACTGCT | -0.0699 |
| AGATCTGC | -0.15 |
| GCGTTCCC | 0.0703 |
| AAACATCT | 0.03 |
| GGTATCCA | -0.0137 |
| GTTGGTCA | 0.0287 |
| AACTAGCA | -0.134 |
| ACATCCTG | -0.0536 |
| AGTAATCG | 0.13 |
| AATCTGTA | -0.0463 |
| ATCACATC | -0.125 |
| GTCCTACA | 0.0243 |

| Sequence | PBM E-score |
| --- | --- |
| ACTTGATC | -0.0744 |
| GGACGTTA | -0.0764 |
| AGCATAAG | -0.205 |
| CATTTAAC | 0.0774 |
| CTCGCCAC | -0.0753 |
| CCCAAGGA | -0.359 |
| GTATCGAC | 0.138 |
| ATTCACCG | -0.00469 |
| CAACGGGG | -0.0318 |
| CCGTCAAG | -0.337 |
| AACAATAA | 0.00589 |
| ATCACCAT | -0.133 |
| AAACGCCG | 0.282 |
| AGTCTAAC | -0.118 |
| ACCTCTGA | -0.16 |
| GAGAGGGC | -0.244 |
| GCAACACA | -0.116 |
| AACCATGT | -0.0813 |
| ACCGAATG | 0.147 |
| GTAGAGTA | 0.126 |
| GGTCACAA | -0.0498 |
| GACTAATC | 6e-05 |
| GTCCCAAC | -0.262 |
| ACTAATTC | 0.0282 |
| CAAGGTGC | -0.263 |

| Sequence | PBM E-score |
| --- | --- |
| AACCTGGC | -0.0924 |
| CGAGATGA | 0.233 |
| CCCCTGGC | -0.237 |
| CAGTGAAG | -0.245 |
| ATCTTGGG | -0.31 |
| AGTGATTC | -0.0528 |
| ACGGTAAT | 0.139 |
| ACATCAGA | -0.0274 |
| AAAGGCCC | -0.141 |
| AGCATTCA | -0.164 |
| GATGCATC | 0.0421 |
| ATCCATAA | 0.196 |
| CCTGAGCG | 0.162 |
| TACGTCAA | 0.0633 |
| ACCATTAA | 0.111 |
| ATTCCTTA | -0.111 |
| AACCCAGA | -0.0878 |
| AACTAATG | -0.0822 |
| CTGTGCAA | -0.14 |
| CCGTGACC | -0.357 |
| AACGGTGT | 0.283 |
| GCAGTGAA | 0.111 |
| CAGTACTC | -0.113 |
| CACACATA | -0.16 |
| CACATGAA | -0.11 |

| Sequence | PBM E-score |
| --- | --- |
| ATAAGAAC | 0.136 |
| TCTTCGAA | 0.0637 |
| CTAAGAAC | -0.0479 |
| AACTTATA | 0.165 |
| ATCAGCGG | -0.0474 |
| CAGCACGG | -0.256 |
| ACGAGTAG | 0.368 |
| AGGCTCTC | -0.123 |
| CCCTAGTC | -0.223 |
| CCACCGTA | 0.399 |
| GAAGGCTC | -0.283 |
| CTGACGCA | -0.268 |
| GATTAGCC | 0.0747 |
| CAATGCCG | -0.121 |
| TATTCTCA | -0.199 |
| AAATACGG | 0.266 |
| AATTTGCC | -0.18 |
| CTTCGACC | -0.102 |
| ATACCAAT | -0.0565 |
